From PMC4336329 (PLoS ONE, 2015)
Hit rate of the full screen: of about 310,000 compounds, about 2,200 (0.71%) showed an effect of 50% or more. The effect is printed as a negative number. The list shows a part of the results.

Molecular target: human ether-à-go-go-related gene (hERG) potassium channel (human, UniProt Q12809)
Test: primary screen, population patch clamp on CHO cells stably expressing hERG

human ether-à-go-go-related gene (hERG) potassium channel, sequence (Q12809 whole entry, looked up): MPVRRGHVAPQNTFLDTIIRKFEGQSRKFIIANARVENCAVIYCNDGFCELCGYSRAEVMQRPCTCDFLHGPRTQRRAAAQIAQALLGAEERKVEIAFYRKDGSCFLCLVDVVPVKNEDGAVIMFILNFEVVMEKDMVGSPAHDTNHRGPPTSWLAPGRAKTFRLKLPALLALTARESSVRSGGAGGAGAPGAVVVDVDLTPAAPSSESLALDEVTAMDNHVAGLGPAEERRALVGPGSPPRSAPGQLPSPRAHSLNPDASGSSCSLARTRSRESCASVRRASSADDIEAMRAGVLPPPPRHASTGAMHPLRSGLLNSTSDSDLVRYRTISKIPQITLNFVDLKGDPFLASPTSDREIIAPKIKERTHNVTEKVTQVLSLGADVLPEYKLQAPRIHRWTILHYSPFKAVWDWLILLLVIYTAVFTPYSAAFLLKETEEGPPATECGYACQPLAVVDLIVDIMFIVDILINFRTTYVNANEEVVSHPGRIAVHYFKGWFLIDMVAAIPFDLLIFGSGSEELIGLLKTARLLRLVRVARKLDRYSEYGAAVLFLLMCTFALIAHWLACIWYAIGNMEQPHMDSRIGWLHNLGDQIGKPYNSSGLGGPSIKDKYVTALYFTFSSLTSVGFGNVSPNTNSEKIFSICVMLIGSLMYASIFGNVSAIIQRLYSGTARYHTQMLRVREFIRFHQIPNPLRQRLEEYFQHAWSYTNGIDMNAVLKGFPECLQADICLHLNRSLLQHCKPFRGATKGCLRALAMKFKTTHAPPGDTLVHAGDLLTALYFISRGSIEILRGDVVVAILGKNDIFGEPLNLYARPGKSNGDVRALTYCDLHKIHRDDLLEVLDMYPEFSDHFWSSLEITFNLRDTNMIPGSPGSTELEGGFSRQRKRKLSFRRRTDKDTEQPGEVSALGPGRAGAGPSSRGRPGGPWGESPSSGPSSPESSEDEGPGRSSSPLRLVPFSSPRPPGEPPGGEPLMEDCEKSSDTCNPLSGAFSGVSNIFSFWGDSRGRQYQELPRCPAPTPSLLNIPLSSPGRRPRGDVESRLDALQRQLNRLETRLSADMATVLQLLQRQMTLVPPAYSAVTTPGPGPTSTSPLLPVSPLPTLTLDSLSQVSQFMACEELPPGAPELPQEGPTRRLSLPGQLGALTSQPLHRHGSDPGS

Row | Structure (SMILES) | hERG current change (%, negative = inhibition) at 1uM [%]
1 | Cc1ccc(C(=O)N/C(=C/c2ccco2)C(=O)N2CCOCC2)cc1 | 8.19
2 | COC(=O)c1nn(-c2ccc(C)cc2)ccc1=O | 8.92
3 | Cc1ccc(C2CC(c3cccs3)=NN2S(=O)(=O)c2ccc(C)cc2)cc1 (stereo not drawn) | 13.6
4 | C=CCOCCN(C)C1=NS(=O)(=O)c2cc([N+](=O)[O-])ccc21 | 4.63
5 | COc1cc(N)c(Cl)cc1C(=O)OCC(=O)N1CCc2ccccc21 | -3.41
6 | COc1ccccc1N1C(=O)C2C(c3ccc(F)cc3)NN(C(=O)c3ccc(C)cc3)C2C1=O (stereo not drawn) | 8.24
7 | Cl.Clc1c(OCCCn2ccnc2)ccc2ccccc12 | 6.44
8 | Cc1ccsc1/C=N/NC(=O)CNC(=O)c1ccccc1 | 13.6
9 | CCOc1ccc(C(=O)N/N=C/c2ccccc2[N+](=O)[O-])cc1 | 12.7
10 | CC(C)OCCCNC(=O)C1CC(=O)N(C2CCCCCCC2)C1 (stereo not drawn) | 13.6
11 | Cc1ccc2nc(SCC(=O)Nc3nonc3C)[nH]c2c1 | 18.3
12 | C(=N\Nc1nc(-c2ccccc2)cs1)/c1cccnc1 | -8.23
13 | CCN(CC)S(=O)(=O)c1cc(NC(=O)C(C)N2CCN(c3ccccn3)CC2)ccc1C (stereo not drawn) | 4.16
14 | CC1CCN(c2ccc(-c3ccc(NC(=O)C(F)(F)F)cc3)nn2)CC1 | 10.3
15 | Cc1cc(NC(=O)CSc2nc(-c3ccco3)cc(C(F)(F)F)n2)no1 | 23.5
16 | Fc1ccc(-c2nc3cnccn3c2NC2CCCC2)cc1 | 13.5
17 | O=C(NCCc1nnc2ccc(SCC(=O)N3CCOCC3)nn12)c1ccccc1 | 13.7
18 | CC(=O)OCN(C#N)c1nc(N(C)C)nc(N(C)C)n1 | 13.7
19 | CCOC(=O)C1CCN(C(=O)Cn2cnc3sc(C)c(S(=O)(=O)N4CCCCC4)c3c2=O)CC1 | 5.45
20 | COC(=O)CSc1nc(C)cc(C(F)(F)F)c1C#N | 6.47
21 | NC(=O)C1CCCN(S(=O)(=O)c2ccc3ccccc3c2)C1 (stereo not drawn) | -7.42
22 | O=[N+]([O-])c1ccc(P(=O)(Cc2ccccc2)c2ccccc2O)cc1 (stereo not drawn) | 18.1
23 | NC(N)=N/N=C/c1ccc(OS(=O)(=O)c2ccccc2)cc1 | -10.7

Row | Structure (SMILES) | hERG current change (%, negative = inhibition) at 1uM [%]
24 | Cl.c1ccc(Cc2ccc(OCCN3CCOCC3)cc2)cc1 | 14
25 | N#CCCN(C(=O)COc1ccc(F)cc1Br)c1ccccc1F | 6.58
26 | CCCCc1nc(C(N)=O)c2[nH]c(=O)n(-c3ccccc3F)c2n1 | 4.7
27 | Cc1ccc(S(=O)(=O)N2c3ccccc3NC(=O)CC2C)cc1 (stereo not drawn) | 15.2
28 | COc1ccc(Cl)cc1NC(=O)CN(C)C(=O)c1cc(=O)c2ccccc2o1 | -0.822
29 | CSc1nnc(-c2ccncc2)n1/N=C/c1cn(-c2ccccc2)nc1-c1ccc(Cl)cc1 | 13.1
30 | NC(=O)c1ccc(-n2nnnc2SCC(=O)Nc2ccccc2-c2ccccc2)cc1 | -5.78
31 | Cc1ccc(CO/N=C/C2=C(Cl)c3ccccc3CC2)cc1 | 14.5
32 | O=C(c1ccc2c(c1)OCO2)N1CCC2(CC1)Oc1ccc(F)cc1C(=O)C21CC(c2ccccc2)=NO1 (stereo not drawn) | 6.22
33 | CC(=O)NS(=O)(=O)c1ccc(N2C(=O)c3ccccc3C2=O)cc1 | 6.43
34 | COc1cc(NC(=O)Cn2c(C)cc3ccccc3c2=O)cc(OC)c1OC | 12.5
35 | Cc1ccc(C(=O)NCc2ccco2)cc1Br | -9.25
36 | OCCC1CN(Cc2ccccc2-c2ccco2)CCN1Cc1ccccc1 (stereo not drawn) | 2.84
37 | NC(=O)Cn1c(=O)n(CC(=O)N2CCCCC2)c(=O)c2sccc21 | 12.9
38 | CCc1cc(-c2n[nH]c(=S)n2C(C)c2ccccc2)cs1 (stereo not drawn) | -5.68
39 | CCCC(c1nnnn1C(C)(C)C)N1CCN(C(=O)c2ccco2)CC1.Cl (stereo not drawn) | 8.97
40 | COc1ccccc1NC(=O)Cc1noc(CN(C)Cc2cccs2)n1 | 2.1
41 | CCOc1cc(NC(=O)C(C)C)c(OCC)cc1NC(=O)Nc1ccccc1 | 17.7
42 | CCN(CC)c1nc(Oc2ccc(=O)[nH]n2)nc(N2CCOCC2)n1 | 13.3
43 | CCN/N=C(\Cc1nc2ccccc2[nH]1)c1ccccc1 | 13
44 | O=C(CN1CCN(Cc2ccccc2F)C1=O)NCCN1CCOCC1 | 12.7
45 | COC(=O)c1ccc(COc2ccc(/C=N/NC(N)=S)cc2)o1 | 3.68
